In PubChem BioAssay AID1745853 (National Center for Advancing Translational Sciences (NCATS), 2022):
Values joined by “and” are separate entries in the source; they are usually repeats but may differ in a detail not shown here. Equal entries are not always repeated. The list shows a part of the results. The main result of the screen is listed elsewhere. These columns were measured beside it and carry no call.

What was measured:
Test in all cases: Primary Screen for Target Class Profiling of Small Molecule Inhibitors of Methyltransferases
[1] = biological target: Glycine N-methyltransferase (Homo sapiens) (UniProt Q14749); conditions: purified enzyme, MTase-Glo SAH luminescence; measured here: GNMT inhibition; at 40 µM; stronger effect = lower value
Method in brief: (§1)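 Each enzyme was assayed with SAM and its substrate. SAH formation detected by MTase-Glo luminescence; single-point 40 uM screen[…].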

[2] = biological target: Guanidinoacetate N-methyltransferase (Homo sapiens) (UniProt Q14353); conditions: purified enzyme, MTase-Glo SAH luminescence; measured here: GAMT inhibition; at 40 µM; stronger effect = lower value
Method in brief: as §1

[3] = biological target: Histamine N-methyltransferase (Homo sapiens) (UniProt P50135); conditions: purified enzyme, MTase-Glo SAH luminescence; measured here: HNMT inhibition; at 40 µM; stronger effect = lower value
Method in brief: as §1

[4] = biological target: Nicotinamide N-methyltransferase (Homo sapiens) (UniProt P40261); conditions: purified enzyme, MTase-Glo SAH luminescence; measured here: NNMT inhibition; at 40 µM; stronger effect = lower value
Method in brief: as §1

[5] = biological target: Phenylethanolamine N-methyltransferase (Homo sapiens) (UniProt P11086); conditions: purified enzyme, MTase-Glo SAH luminescence; measured here: PNMT inhibition; at 40 µM; stronger effect = lower value
Method in brief: as §1
% is set by controls: 0 for no effect and ±100 for the full control effect.

SMILES | activity change, negative = inhibition [1] | activity change, negative = inhibition [2] | activity change, negative = inhibition [3] | activity change, negative = inhibition [4] | activity change, negative = inhibition [5]
CCN(CC)CCNC(=O)c1cc(Cl)c(N)cc1OC | 0.396% and 5.08% | 7.41% and 7.49% | 0.285% and -0.994% | -9.66% and -7.76% | 4.73% and 2.85%
CC(=O)NCCNC(=O)C1CCCN(S(=O)(=O)c2ccccc2)CCC(=O)NCC1 (stereo not given) | -1.17% | 0.963% | 2.59% | -8.3% | -0.481%
Cc1cc(C)cc(NC(=O)Cn2nc3n(Cc4ccc(F)cc4)c(=O)c4ccccc4n3c2=O)c1 | -3.7% | -3.26% | 0.269% | -5.39% | -4.74%
c1ccc(-c2nnn3c2nc(N2CCCCC2)c2ccccc23)cc1 | -4.18% | -6.26% | -8.27% | -11.3% | -27.8%
CCOc1ccc2ccccc2c1C(=O)N[C@@H]1C(=O)N2[C@@H]1SC(C)(C)[C@@H]2C(=O)O | 6.47% | 3.71% | 8.44% | -12.5% | 2.78%
Cc1ccc(Cl)cc1N1CCN(S(=O)(=O)c2ccc3[nH]c4c(c3c2)CCCC4)CC1 | -3.1% | 5.18% | -4.21% | 2.12% | 1.9%
CNC(=O)C(C)N(C)C(=O)c1coc(CN2CCN(c3ccccc3F)CC2)n1 (stereo not given) | -2.27% | -1.63% | -0.129% | -9.97% | -2.42%
COc1ccc(CN2CCCC3(CC(c4cccc(C(F)(F)F)c4)=NO3)C2)cc1 (stereo not given) | -4.68% | -1.37% | -6.99% | -9.71% | -8.67%
CC1(C)C[C@H](NCC2CCCCC2)[C@@]2(CCC(=O)N3CCCC3)CC[C@](C)(O)C[C@@H]12 | 1.28% | 3.65% | -3.41% | -2.26% | 2.42%
C/C1=C\CC[C@]2(C)O[C@@H]2[C@H](O)[C@H](C(C)C)[C@H](OC(=O)/C=C/c2ccccc2)C1 | -1.5% | 5.14% | 5.84% | -8.16% | 0.857%
COC(=O)c1cc2n(n1)CC(C)(C(=O)NC1CCCCC1)N(Cc1ccccc1Cl)C2=O (stereo not given) | 2.81% | 4.97% | 5.73% | 3.39% | -3.56%
COc1ccccc1CNC(=O)C1(C)Cn2c(cc3ccccc32)C(=O)N1Cc1ccc(Cl)cc1 (stereo not given) | -3.83% | -2.95% | 0.071% | -5.58% | -5.27%
O=C(Nc1ccc(Cl)cc1)N1Cc2c(sc3c2CCCC3)-n2cccc2C1c1cccc(F)c1 (stereo not given) | 1.99% | 0.076% | 6.04% | -2.04% | 6.24%
N.N.O=C(O)C1(C(=O)O)CCC1.[Pt+2] | -95.7% | 3.45% | -2.08% | -3.8% | 8.23%
CN(C)C/C=C(/c1ccc(Br)cc1)c1cccnc1 | -18.2% | -0.608% | -95.4% | -15.6% | 1.88%
C=Cc1ccc(Cn2nc3n(Cc4ccccc4)c(=O)c4ccccc4n3c2=O)cc1 | 1.33% | 0% | 6.59% | 1.16% | 0.607%
CC(C)CCOc1ccc2c(-c3ccccc3)cc(=O)oc2c1 | 2% | 0.18% | 9.98% | 4.32% | -2.87%
NC/C=C/C(=O)O | 2.33% | 12.6% | 7.9% | -2.7% | 4.45%
